Out of some 340,000 compounds screened, about 3,300 (0.97%) were called active. The inconclusive results got no clear call from the source; some entries with a clear call stand among them for comparison.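 How the source made its calls: active means mean activation above about 17%, with every replicate also reaching it (limit read from the data, passing the limit was not always enough); inconclusive means only one of the two conditions met; inactive means the rest.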
Each compound was assayed against Protein FosB (Mus musculus) (UniProt P13346) (assay: enhancers of mouse delta FosB DNA binding – biochemical, fluorescence polarization, TAMRA-CDK5 oligo, single point, primary screen (AID 493131;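 further: fluorescence polarization rise as delta FosB binds a TAMRA Cdk5 AP-1 oligo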)). Settings: purified delta FosB, at 25 µM, hits give high values, percent of positive-control signal above neutral wells.
Sequence of UniProt P13346 (P13346 whole entry, looked up): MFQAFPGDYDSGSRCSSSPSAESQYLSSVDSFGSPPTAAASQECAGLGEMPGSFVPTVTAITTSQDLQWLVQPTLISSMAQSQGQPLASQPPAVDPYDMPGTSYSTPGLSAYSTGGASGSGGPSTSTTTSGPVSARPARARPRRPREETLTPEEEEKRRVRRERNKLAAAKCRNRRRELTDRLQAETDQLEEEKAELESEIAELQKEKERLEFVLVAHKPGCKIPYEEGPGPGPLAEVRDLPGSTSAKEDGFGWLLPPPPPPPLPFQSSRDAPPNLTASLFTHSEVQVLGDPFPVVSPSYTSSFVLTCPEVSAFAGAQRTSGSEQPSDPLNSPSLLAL

| Compound | activation |
| --- | --- |
| CNC(=O)c1cc(Oc2ccc(NC(=O)Nc3ccc(Cl)c(C(F)(F)F)c3)cc2)ccn1 | inactive: 9.33% |
| CCCCCCCCNS(=O)(=O)CCNCCc1ccccc1 | inactive: -9.32% |
| CCCCCCn1c(SCC(=O)Nc2cc(C)on2)nc2ccccc2c1=O | inactive: 13.3% |
| Clc1cc2nc(-c3cccnc3Cl)[nH]c2cc1Cl | active: 35.5% |
| Nc1nonc1-n1nnc(C(=O)N/N=C/c2ccccc2Cl)c1-c1ccc2c(c1)OCO2 | active: 25% |
| CC(C)C1C(c2ccccc2)NC(c2ccccc2)CC1(O)c1ccc(F)cc1 (stereo unspecified) | inconclusive: 16.2% |
| COc1cccc(NC(=O)CN(C)C(=O)/C=C/c2cn(-c3ccccc3)nc2-c2ccc(OC)c(OC)c2)c1 | inconclusive: 22.9% |
| O=C(NNC(=O)c1ccc2ccccc2c1O)c1ccccc1Cl | inactive: -2.76% |
| CCCCN1CCc2c1nc1ccc(Br)cc1c2N | inconclusive: 18.4% |
| Cc1cccc(NC(=O)CN2C(=O)N/C(=C/c3cc(C)n(-c4cccnc4)c3C)C2=O)c1 | inactive: -3.04% |
| Fc1ccc(Nc2ccnc(Nc3ccc(F)cc3)n2)cc1 | inconclusive: 17.6% |
| COc1ccc2c(-c3ccc(OCCN4CCCCC4)cc3)c(-c3ccccc3OC)sc2c1 | active: 47.5% |
| O=S(=O)(c1ccc(Br)cc1)N1CCN(c2cc(-c3ccccc3)nc3ncnn23)CC1 | inconclusive: 28.8% |
| CCCCN(CCCC)CCC(O)c1cc2c(Cl)cc(Cl)cc2c2cc(C(F)(F)F)ccc12 (stereo unspecified) | inconclusive: 21.3% |
| Clc1cccc(N/N=C(\Cc2nc3ccccc3[nH]2)c2ccccc2)c1 | inconclusive: 18.5% |
| O=C(Nc1ccc(Cl)cn1)c1ccc(-c2cc(Cl)ccc2Cl)o1 | inconclusive: 26.8% |
| COc1cccc(NC(=O)Nc2nnc(-c3ccccc3SCc3ccccc3)s2)c1 | inconclusive: 29.7% |
| O=C1NC(=S)CN1c1ccccc1 | inactive: 11.5% |
| Cc1ccc(/C=N/NC(=O)c2ccc(NC(=O)c3ccccc3Cl)cc2)o1 | inconclusive: 18.6% |
| CSC(=S)N/N=C/c1ccccc1 | inactive: 4.31% |
| N#C/C(=N\O)c1nc2ccccc2[nH]1 | inactive: 0.308% |
| O=C(CSc1nnc2ccccn12)Nc1cccc(-c2nc3ccccc3s2)c1 | inconclusive: 24.4% |

| Compound | activation |
| --- | --- |
| CCOc1ccccc1NC(=O)Cn1nnc(C(=O)NCc2cccs2)c1N | active: 28.6% |
| CCOc1ccccc1NC(=O)c1cc(-c2ccncc2)nc2c(Cl)cccc12 | inconclusive: 27.6% |
| C=CCn1c(-c2c(C)nc3cc(C)ccn23)n[nH]c1=S | inactive: -0.467% |
| Cc1ccc(NC(=O)[C@H](NC(=O)[C@@H]2Cc3ccccc3CN2)c2ccccc2)cc1C | inconclusive: 23.5% |
| O=C(Nc1cccc(S(=O)(=O)N2CCCCC2)c1)c1c2c(nc3ccccc13)CCN(Cc1ccccc1)C2 | active: 51.7% |
| CN1CCN(C(=S)NC(=O)/C=C/c2ccccc2)CC1 | inactive: -6.29% |
| Cc1ccc(N=C2NC(=O)/C(=C/c3cn(C)c4ccccc34)S2)cc1C | inconclusive: 20.9% |
| Cc1ccc(NC(=O)Cn2cnc3c(nnn3Cc3ccc(F)cc3)c2=O)cc1 | active: 22.8% |
| CCCCCc1cc(=O)oc2c(C(CCN3CCCCC3)c3cc(OC)c(OC)c(OC)c3)c(OC)cc(OC)c12 (stereo unspecified) | inactive: -0.498% |
| CC(Nc1ncnc2ccccc12)c1ccccc1 (stereo unspecified) | inactive: 0.017% |
| OCCC1CN(Cc2cnc(-c3ccc(Cl)cc3)nc2)CCN1C1CCCCC1 (stereo unspecified) | inactive: -5.09% |
| C/C(=N/NC(=O)CSCc1ccc(Cl)cc1)c1cccc(NC(=O)c2ccccc2)c1 | active: 38.5% |
| Cc1ccc(N(CC(=O)NC(C)c2ccccc2)S(=O)(=O)c2c(C)noc2C)cc1 (stereo unspecified) | inconclusive: 17.5% |
| Nc1nc(N)c2c(ccc3nccc32)[nH]1 | active: 35.7% |
| Cc1cccc(NC(=O)c2ccc(NC(=O)c3ccccc3Br)cc2)c1 | inconclusive: 27.2% |
| N#C/C(=C/c1ccc(OC(=O)c2ccc(Br)s2)cc1)c1nc2ccccc2[nH]1 | inconclusive: 16.1% |
| O=C(O)COc1ccccc1/C=N/NC(=O)CSc1nc2ccccc2n1Cc1ccc(Cl)cc1 | inactive: 1.53% |
| OC1CCCN(Cc2ccc3ccc4cccc5ccc2c3c45)C1 (stereo unspecified) | active: 67.9% |
| CCC[C@@H](CN1CCC[C@H]1CN1C(N)=NC[C@@H]1Cc1ccccc1)N1C[C@@H]([C@H](C)CC)N(CCCC2CCCC2)C1=N | inconclusive: 16.1% |
| CC(C)CC(NS(=O)(=O)c1ccc2c(c1)oc(=O)n2C)C(=O)NC1CCCc2ccccc21 (stereo unspecified) | inconclusive: 18.9% |
| Cn1c(SCC(=O)N/N=C/C=C\c2ccccc2[N+](=O)[O-])nc2ccccc21 | active: 20.3% |
| O=C(CCN1C(=O)S/C(=C\c2cccs2)C1=O)Nc1nccs1 | inconclusive: 17.6% |

| Compound | activation |
| --- | --- |
| Cc1cc2c(cc1C)CSC(c1ccccc1OC(=O)C(C)C)SC2 | inconclusive: 19.9% |
| Cc1cc(C)c(NC(=O)Nc2ccccc2C)c(Cl)c1 | active: 20.2% |
| CN(C(=O)COC(=O)/C=C/c1ccc(C(F)(F)F)cc1)c1c(N)n(Cc2ccccc2)c(=O)[nH]c1=O | inactive: 10.5% |
| COc1cc(/C=N/NC(=O)Nc2ccccc2)ccc1OCCOc1ccccc1C | inconclusive: 19.4% |
| NC(=O)Nc1ccc(C(=O)OCC(=O)NCc2ccc3c(c2)OCO3)cc1 | inconclusive: 18.2% |
| O=C(CC(NC(=O)c1ccccc1)c1ccccc1)Nc1cccc2ccccc12 (stereo unspecified) | inconclusive: 22.8% |
| CCN(CC)CCN(C(=O)c1ccc(C(=O)c2ccccc2)cc1)c1nc2cc3c(cc2s1)OCO3 | active: 47.7% |
| COc1ccc(NC(=O)C(=O)NCC(=O)Nc2cccc(C(F)(F)F)c2)cc1 | inconclusive: 22.2% |
| O=C(COC(=O)Cc1ccccc1[N+](=O)[O-])Nc1nnc(-c2ccccc2)o1 | inactive: -9.38% |
| CC1CN(c2ccc([N+](=O)[O-])c(NCCOc3ccc(Cl)cc3)c2)CC(C)N1 (stereo unspecified) | active: 37.2% |
| CN=C1SC(CC(=O)Nc2ccc(F)cc2F)C(=O)N1/N=C/c1ccc(OC(F)F)c(OC)c1 (stereo unspecified) | inconclusive: 18.1% |
| Cc1ccc(C=C2C(=O)c3ccccc3C2=O)o1 | inactive: -1.97% |
| O=C(NNC(=O)c1cc(-c2ccccc2)nc2ccccc12)Nc1cccc(Cl)c1 | inconclusive: 18.4% |
| O=C(Nc1ccc(Br)cc1F)c1ccc2nsnc2c1 | inconclusive: 16.1% |
| CCOc1ccc(CNC(=O)C2CCN(c3nnc(C)c4c(C)n(-c5ccc(C)cc5)nc34)CC2)cc1 | active: 78.2% |
| Cc1ccc(Nc2nc(N/N=C/c3c[nH]c4ccccc34)nc(N3CCOCC3)n2)cc1 | inconclusive: 20.4% |
| COc1ccc(O)c(-c2cc(-c3cccc(Br)c3)n[nH]2)c1 | inactive: -12.6% |
| COc1ccc2c(-c3ccccc3)cc(SCC(=O)NC(N)=O)nc2c1 | inconclusive: 25.5% |
| COc1ccc2c(C)cc(SCC(=O)Nc3cccnc3Cl)nc2c1 | inconclusive: 19.3% |
| Cn1c(N/N=C/c2c[nH]c3ccccc23)nc2ccccc21 | inconclusive: 20.8% |
| COC(=O)c1cc(OC)c(OC)cc1NC(=O)c1cc(OC)cc(OC)c1 | active: 23.2% |
| O=C(Nc1cc(C(F)(F)F)ccc1Cl)c1ccc(NC(=O)C(F)(F)F)cc1 | inconclusive: 31.2% |

| Compound | activation |
| --- | --- |
| O=C(Cn1nc(-c2ccccc2)ccc1=O)Nc1ccc(N2CCN(C(=O)c3ccccc3)CC2)cc1 | inactive: 2.53% |
| O=C(Nc1cccc(O)c1)C(Cc1ccccc1)N1C(=O)c2cccc3cccc(c23)C1=O (stereo unspecified) | inconclusive: 18.7% |
| N#Cc1cn(-c2ccccc2)nc1-c1ccc2c(c1)OCCO2 | inconclusive: 17.1% |
| Cc1ccc(-c2nn(-c3ccccc3)c3[nH]c(=O)c(CNCc4ccccc4)cc23)cc1 | active: 21.4% |
| Cc1ccc(NCC(=O)N/N=C/c2cccc(Oc3ccccc3)c2)cc1 | inactive: -5.39% |
| Nc1ccccc1SC1CC(=O)N(c2ccc(Cl)c(Cl)c2)C1=O (stereo unspecified) | active: 26.5% |
| CCN(CC)CCn1c(SCC(=O)Nc2cccc(OC)c2)nc2c(sc3ccccc32)c1=O | inconclusive: 18% |
| O=C(N/N=C/c1ccc(Cl)c([N+](=O)[O-])c1)c1ccc2c(c1)OCCO2 | inconclusive: 20.6% |
| CC1C(=O)C(C)C(c2cc(Br)ccc2O)NC1c1cc(Br)ccc1O (stereo unspecified) | inconclusive: 23.8% |
| COc1ccc(Cn2c(SC)nc3ccccc32)cc1[N+](=O)[O-] | inactive: 5.22% |
| CCN1CCN(c2nc(Nc3ccc(NC(C)=O)cc3)nc(Nc3ccc(NC(C)=O)cc3)n2)CC1 | active: 72.9% |
| O=c1c(O)c(-c2ccc3c(c2)OCO3)oc2ccccc12 | inconclusive: 22.8% |
| O=C(N/N=C\c1c(O)ccc2ccccc12)c1ccc(O)cc1 | inconclusive: 16.7% |
| O=C(NCCN1CCOCC1)c1ccc(Cl)c(S(=O)(=O)N2CCOCC2)c1 | inactive: -1.99% |
| O=C(NCc1ccccc1Cl)C1CCC(CNc2nc(=S)[nH]c3ccccc23)CC1 (stereo unspecified) | active: 70.5% |
| Cc1nn(-c2cccc(Cl)c2)c(Cl)c1/C=N/NC(=O)c1cccs1 | inconclusive: 27.3% |
| COC(=O)c1sc(NC(=O)c2ccco2)nc1C | inactive: -0.717% |
| CCCCNC(=O)C(C)N(CCN(C)C)C(=O)CCCCCN1C(=O)NC(c2ccc(Cl)cc2)C(C(=O)OCc2ccccc2)=C1C (stereo unspecified) | active: 18.2% |
| Fc1ccc2nc(Nc3nc4c(F)cccc4s3)sc2c1 | inconclusive: 31.6% |
| Nc1c(S(=O)(=O)c2ccccc2)c2nc3ccccc3nc2n1Cc1ccco1 | inconclusive: 16.7% |

— PubChem BioAssay AID493131 (Broad Institute, 2011)
